In PubChem BioAssay AID924 (National Center for Advancing Translational Sciences (NCATS), 2007):
About 1,200 (0.92%) of roughly 130,000 compounds were called active. The inconclusive results got no clear call from the source; some entries with a clear call stand among them for comparison. The call rests on the fitted dose curve; in most records, active means well fitted cell-killing curve with a large enough effect; inconclusive means small, poorly fitted or top-dose-only effect; inactive means no such curve, though single readings can be large or run the other way. A potency beside an inconclusive call is a rough fit, not a confirmed value.
Potency means the concentration at half of the fitted maximal effect; tags describe the fitted curve by direction and shape.

Test: qHTS Screen for Compounds that Selectively Target Cancer Cells with p53 Mutations: Cytotoxicity of p53ts Cells at the Permissive Temperature; further: nearly all actives have a fitted effect of over 55% in size;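 on activity change, negative = cytotoxicity: 0% = DMSO and -100% = full killing by reference compound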
Conditions: H1299-p53A138V at 32C, ATP luminescence viability, 24 h; series mostly up to 46.1 µM
In short: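 H1299-p53 A138V cells (temperature-sensitive p53) exposed 24 h to up to 46 uM compound at 32C, where p53 is wild-type in conformation. Viability read as ATP luminescence and normalised to DMSO and 100 uM tamoxifen. AC50 fitted with the Hill equation.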
For Cc1ccc(-n2nc3c(N4CCC(C(=O)NCc5ccccc5Cl)CC4)nnc(C)c3c2C)cc1, the Potency was inconclusive: 25.1 µM [cytotoxic, single point]. For CC(=O)OC1C[C@@]2(C)C(c3ccoc3)C[C@H]3O[C@@]32[C@@]2(C)C(=O)C(O)=C3C(C)(C)C(=O)C=C[C@]3(C)C12 (some centres undefined), the Potency was active: 1.58 µM. In the case of Cc1cccc(Cn2cccc(C(=O)Nc3ccc4c(c3)OCCO4)c2=O)c1, the Potency is reported as “inactive”. With CC(Oc1ccccc1)C(=O)Nc1ccc(C(=O)OCc2cc(=O)n3nc(C4CC4)sc3n2)cc1 (centres undefined) the Potency was inconclusive: 1 µM [cytotoxic, full curve, poor fit]. With C[C@@H](Cc1cccc(C(F)(F)F)c1)NCCCc1ccccc1 the Potency was “inactive”. For Cc1ccc(CNC(=O)c2ccccc2NC(=O)c2nsc3ccccc23)cc1, the Potency was inconclusive: 25.1 µM [cytotoxic, single point]. For CCn1cnc2c(Nc3cccc(Cl)c3)nc(N[C@@H]3CCCC[C@H]3N)nc21, the Potency was active: 10 µM. For COc1ccc(CCNC(=O)CCn2c(=O)c3ccccc3n(Cc3ccc(Cl)cc3)c2=O)cc1OC, the Potency was inconclusive: 31.6 µM [cytotoxic, single point]. In the case of Cc1cccc2c3c(ccc12)C1=C(C(=O)C3=O)C(C)CO1 (centres undefined), the Potency is reported as inconclusive: 20 µM [cytotoxic, single point]. With COc1ccc2c(c1)-c1nc(NC(=O)c3ccc(Cl)cc3)sc1CC2 the Potency was inconclusive: 12.6 µM [cytotoxic, single point]. For COC(=O)[C@@H]1[C@@H](C(=O)OC)C2(c3ccccc3-c3ccccc32)N(c2ccc(Cl)cc2)N1C#N, the Potency was inconclusive: 28.2 µM [cytotoxic, single point]. In the case of N#CCBr, the activity change, negative = cytotoxicity is reported as inactive: -1.97% [at 1.84 µM]. With CN(C(=O)Cc1ccccc1)[C@H](CN1CCCC1)c1ccccc1 the Potency was “inactive”. For COC[C@H]1OC(=O)c2coc3c2[C@@]1(C)C1=C(C3=O)[C@H]2CCC(=O)[C@@]2(C)C[C@H]1OC(C)=O, the Potency was inconclusive: 2.51 µM [cytotoxic, full curve, poor fit]. For Cc1ccccc1Cn1cccc(C(=O)Nc2nc3ccccc3s2)c1=O, the Potency was “inactive”. In the case of CN(C)c1ccc(N)cc1, the activity change, negative = cytotoxicity is reported as inactive: -2.25% [at 1.84 µM]. With N#CC(C#N)=NNc1ccc(OC(F)(F)F)cc1 the Potency was inconclusive: 15.8 µM [cytotoxic, partial curve]. For C=CCN1CC[C@@]23CCCC[C@@H]2[C@@H]1Cc1ccc(O)cc13, the Potency was “inactive”. For O=C1C(Cl)=C(Cl)C(=O)C(Cl)=C1Cl, the Potency was active: 5.01 µM. For C[C@]12Cc3cn4c(nc3C=C1CC[C@H]1[C@@H]2CC[C@@]2(C)[C@H]1CC[C@@]2(O)C#N)nc1ccccc14, the Potency was inconclusive: 7.94 µM [cytotoxic, partial curve]. For O=C1C2(Cl)C3(Cl)C4(Cl)C(Cl)(Cl)C5(Cl)C3(Cl)C1(Cl)C5(Cl)C24Cl (centres undefined), the Potency was inconclusive: 0.251 µM [cytotoxic, full curve, poor fit]. In the case of COc1ccc(C[C@@H](N)c2ccc(OC)cc2)cc1, the activity change, negative = cytotoxicity is reported as inactive: 6.4% [at 9.22 µM]. With COc1ccccc1NC(=O)c1oc2ccccc2c1NC(=O)c1ccccc1C(F)(F)F the Potency was inconclusive: 10 µM [cytotoxic, partial curve]. In the case of COc1ccc(CCNC(=O)c2c(N)n(CCN3CCOCC3)c3nc4ccccc4nc23)cc1, the Potency is reported as inconclusive: 31.6 µM [cytotoxic, single point]. For CCC1CN(C)CCC1(OC(C)=O)c1ccccc1 (centres undefined), the Potency was “inactive”. With CC(C)OCCCNC(=O)c1c(N)n(Cc2cccs2)c2nc3ccccc3nc12 the Potency was inconclusive: 31.6 µM [cytotoxic, single point]. In the case of Cc1c(C(=O)N2CCOCC2)sc2nc(-c3ccccc3)cn12, the Potency is reported as inconclusive: 15.8 µM [cytotoxic, single point]. With C=CCN1CCc2cccc3c2[C@@H]1Cc1ccc(O)c(O)c1-3 the Potency was inconclusive: 12.6 µM [cytotoxic, single point]. With Cc1cc(-c2cc(C)c(N)c(C)c2)cc(C)c1N the Potency was inconclusive: 0.004 µM [cytotoxic, full curve, poor fit]. With CC1CC[C@@]2(OC1)O[C@@H]1[C@@H](O)[C@H]3C4CC[C@H]5C[C@@H](O[C@@H]6O[C@H](CO)[C@H](O[C@@H]7O[C@H](CO)[C@@H](O)[C@H](O[C@@H]8OC[C@@H](O)[C@H](O)[C@H]8O)[C@H]7O[C@@H]7O[C@H](CO)[C@@H](O)[C@H](O[C@@H]8O[C@H](CO)[C@@H](O)[C@H](O)[C@H]8O)[C@H]7O)[C@H](O)[C@H]6O)[C@H](O)C[C@]5(C)C4CC[C@]3(C)[C@H]1[C@@H]2C (some centres undefined) the Potency was active: 12.6 µM. In the case of C=CCN1CC[C@@]23c4c5ccc(O)c4O[C@H]2/C(=N\N=C2/CC[C@@]4(O)[C@H]6Cc7ccc(O)c8c7[C@@]4(CCN6CC=C)[C@@H]2O8)CC[C@]3(O)[C@@H]1C5, the Potency is reported as inconclusive: 12.6 µM [cytotoxic, single point]. For C[C@@H]1O[C@@H](O[C@H]2C[C@@H](O)[C@]3(CO)[C@@H]4[C@@H](O)C[C@]5(C)[C@H]([C@@H]6COC(=O)C6)CC[C@@]5(O)[C@H]4CC[C@@]3(O)C2)[C@H](O)[C@H](O)[C@@H]1O, the Potency was inconclusive: 2 µM [cytotoxic, full curve, poor fit]. With CN(C(=O)Cc1ccc(Cl)c(Cl)c1)[C@H](CN1CCCC1)c1cccc(N=C=S)c1 the Potency was active: 31.6 µM. In the case of O=C(O)[C@@H]1[C@H](C(=O)O)[C@]2(Cl)C(Cl)=C(Cl)[C@@]1(Cl)C2(Cl)Cl, the Potency is reported as inconclusive: 6.31 µM [cytotoxic, single point]. With Cn1c(=O)cc(SCC(=O)N2CCC3(CC2)OCCO3)c2ccc(Cl)cc21 the Potency was inconclusive: 3.98 µM [cytotoxic, partial curve, poor fit]. In the case of COC1CC(OC2CC[C@@]3(C=O)C4CC[C@]5(C)C(C6=CC(=O)OC6)CC[C@@]5(O)C4CC[C@]3(O)C2)OC(C)C1O (some centres undefined), the Potency is reported as inconclusive: 0.316 µM [cytotoxic, full curve]. For CCCCC(=O)Cl, the Potency was inconclusive: 0.01 µM [cytotoxic, full curve, poor fit]. For CN1CC[C@]2(C)c3cc(O)ccc3N(C)[C@@H]12, the Potency was active: 20 µM. For CCn1nc(-c2ccccc2)nc2c(=O)n(C)c(=O)nc1-2, the Potency was active: 0.631 µM. In the case of O=C(O)c1nn(Cc2ccc(Cl)cc2Cl)c2ccccc12, the Potency is reported as “inactive”. For CC(=O)c1ccc(NC(=O)c2sc3nc4c(cc3c2N)N2CCC4CC2)cc1, the Potency was inconclusive: 25.1 µM [cytotoxic, single point]. For CC(C)(C)c1cc(C=C(C#N)C#N)cc(C(C)(C)C)c1O, the Potency was active: 10 µM. In the case of Cc1ccc(CSc2ncccc2C(=O)O)cc1, the Potency is reported as inconclusive: 5.01 µM [cytotoxic, partial curve]. With O=c1c2ccccc2nc(/C=C\c2cccc(Br)c2)n1-c1ccc(O)cc1 the Potency was inconclusive: 31.6 µM [cytotoxic, single point]. With COc1ccc2nc(N3CCN(C(=O)CS(=O)(=O)c4ccc(C)cc4)CC3)sc2c1 the Potency was active: 11.2 µM. For CC1O[C@@H](OC2CC[C@@]3(C=O)C4CC[C@]5(C)C(C6=CC(=O)OC6)CC[C@@]5(O)C4CC[C@]3(O)C2)C(O)C(O)C1O (some centres undefined), the Potency was inconclusive: 0.199 µM [cytotoxic, full curve, poor fit]. With O=C(Nc1ccc(Cl)c(C(F)(F)F)c1)c1ccc2c(c1)CCN2S(=O)(=O)c1ccccc1 the Potency was inconclusive: 5.01 µM [cytotoxic, full curve, poor fit]. In the case of O=C(NCCc1ccc(Cl)cc1)c1ccc(Nc2nc3ccccc3n3nnnc23)cc1, the Potency is reported as inconclusive: 3.16 µM [cytotoxic, full curve, poor fit]. For N#Cc1c(Cl)c(Cl)c(Cl)c(C#N)c1Cl, the Potency was active: 3.98 µM. With OCC(Cl)CCl (centres undefined) the Potency was inconclusive: 0.0126 µM [cytotoxic, full curve, poor fit]. In the case of CCCCOC(=O)C1=C(N)OC2=C(C(=O)CC(C)(C)C2)[C@]12C(=O)N(C)c1ccccc12, the Potency is reported as “inactive”. With C[CH2][Hg][S]c1ccccc1C(=O)O the Potency was active: 1 µM. In the case of C[C@@H]1CC[C@@]2(OC1)O[C@H]1[C@@H](O)[C@H]3[C@@H]4CC[C@H]5C[C@@H](O[C@@H]6O[C@H](CO)[C@H](O[C@@H]7O[C@H](CO)[C@@H](O)[C@H](O[C@@H]8OC[C@@H](O)[C@H](O)[C@H]8O)[C@H]7O[C@@H]7O[C@H](CO)[C@@H](O)[C@H](O[C@@H]8O[C@H](CO)[C@@H](O)[C@H](O)[C@H]8O)[C@H]7O)[C@H](O)[C@H]6O)[C@H](O)C[C@]5(C)[C@H]4CC[C@]3(C)[C@H]1[C@@H]2C, the activity change, negative = cytotoxicity is reported as inactive: 3.48% [at 1.84 µM]. With c1ccc(Nc2cccc3ccccc23)cc1 the Potency was inconclusive: 0.0032 µM [cytotoxic, full curve, poor fit]. For CC[C@@]1(O)CC(O)c2c(cc3c(c2O)C(=O)c2c(O)ccc(O)c2C3=O)C1C(=O)OC (some centres undefined), the Potency was inconclusive: 10 µM [cytotoxic, partial curve]. With CN(C)C(=O)Nc1cccc(C(F)(F)F)c1 the Potency was inconclusive: 0.01 µM [cytotoxic, full curve, poor fit]. In the case of N#CC(C#N)=Cc1cc(O)c(O)c(O)c1, the Potency is reported as inconclusive: 31.6 µM [cytotoxic, partial curve]. For CN1C[C@H](CNC(=O)OCc2ccccc2)C[C@@H]2c3cccc4c3c(cn4C)C[C@H]21, the Potency was inconclusive: 12.6 µM [cytotoxic, single point]. For CCCCn1c(N)c(C(=O)NCCN2CCOCC2)c2nc3ccccc3nc21, the Potency was “inactive”.
